# Reference: PubChem BioAssay AID504332 (National Center for Advancing Translational Sciences (NCATS), 2011)
# About 31,000 (8.9%) of roughly 350,000 compounds were called active. Inconclusive means that the source gave no clear call. Such entries were picked first, then a sample of the others. Calls follow the shape of the dose curve; as a rule, active = well fitted inhibition curve with a large enough effect; inconclusive = small, poorly fitted or top-dose-only effect; inactive = no such curve, though single readings can be large or run the other way. A potency beside an inconclusive call is a rough fit, not a confirmed value.
# Target: Histone-lysine N-methyltransferase EHMT2 (Homo sapiens) (UniProt Q96KQ7)
# Test: qHTS Assay for Inhibitors of Histone Lysine Methyltransferase G9a; also: nearly all actives have a fitted effect of over 75% in size
# Details: G9a H3K9 monomethylation, AlphaScreen, 2 h; activity, negative = inhibition: at 59 µM (top of the series) unless noted
# Summary of the method: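 Signal arises when biotinylated H3K9 peptide, once monomethylated, bridges streptavidin donor and antibody-captured acceptor beads. Enzyme at 20 nM was preincubated 15 min with test compounds; peptide 500 nM and SAM 20 uM then reacted for 2 h.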
# % is scaled to controls: 0 for no effect and ±100 for the full control effect; potency is read from the fitted curve at half-maximal effect; tags tell the direction and shape of the fitted curve.
# UniProt Q96KQ7, sequence (Q96KQ7 whole entry, looked up): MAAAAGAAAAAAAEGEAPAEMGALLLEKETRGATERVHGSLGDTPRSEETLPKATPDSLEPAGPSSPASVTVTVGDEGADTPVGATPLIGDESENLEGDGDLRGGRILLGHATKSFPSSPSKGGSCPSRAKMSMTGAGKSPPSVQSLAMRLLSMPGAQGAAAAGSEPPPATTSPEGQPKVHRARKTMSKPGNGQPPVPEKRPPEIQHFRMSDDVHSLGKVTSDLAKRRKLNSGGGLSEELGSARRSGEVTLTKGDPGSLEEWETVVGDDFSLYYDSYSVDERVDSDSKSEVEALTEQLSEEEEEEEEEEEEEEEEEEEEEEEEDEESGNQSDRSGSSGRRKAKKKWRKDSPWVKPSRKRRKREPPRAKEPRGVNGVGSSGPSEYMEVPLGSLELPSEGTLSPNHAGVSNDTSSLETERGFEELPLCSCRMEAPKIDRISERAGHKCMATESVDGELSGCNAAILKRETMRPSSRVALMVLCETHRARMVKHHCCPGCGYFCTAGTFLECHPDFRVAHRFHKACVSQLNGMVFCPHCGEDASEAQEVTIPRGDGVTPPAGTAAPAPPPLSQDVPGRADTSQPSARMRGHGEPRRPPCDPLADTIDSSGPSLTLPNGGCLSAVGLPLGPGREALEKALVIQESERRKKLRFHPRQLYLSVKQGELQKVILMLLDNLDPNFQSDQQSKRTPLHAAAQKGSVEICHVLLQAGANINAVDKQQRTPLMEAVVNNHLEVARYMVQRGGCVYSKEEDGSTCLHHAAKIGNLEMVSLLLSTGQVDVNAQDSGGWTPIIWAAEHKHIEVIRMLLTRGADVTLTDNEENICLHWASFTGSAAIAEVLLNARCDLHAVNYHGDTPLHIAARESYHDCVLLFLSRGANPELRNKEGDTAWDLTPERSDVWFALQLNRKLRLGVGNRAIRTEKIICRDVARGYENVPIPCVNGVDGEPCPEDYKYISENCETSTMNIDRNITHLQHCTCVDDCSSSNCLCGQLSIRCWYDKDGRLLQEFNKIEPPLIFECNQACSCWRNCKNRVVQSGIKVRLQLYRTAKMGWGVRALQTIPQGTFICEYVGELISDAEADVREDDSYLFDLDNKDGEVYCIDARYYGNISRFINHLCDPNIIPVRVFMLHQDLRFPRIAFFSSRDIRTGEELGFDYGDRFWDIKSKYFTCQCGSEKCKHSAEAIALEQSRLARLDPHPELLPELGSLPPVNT
SMILES,"activity, negative = inhibition",Potency
COc1cccc(NC(=O)CN2CCN(c3ccccc3F)CC2)c1,inactive: -8.49% [at 12.7 µM],–
COc1cccc(NS(=O)(=O)c2ccc3[nH]c4c(c3c2)CCCCCC4)c1,–,"inconclusive: 3.16 µM [inhibitor, full curve]"
C=CCNC(=S)/C(=C(/[O-])c1ccccc1Br)[n+]1ccccc1,–,"inconclusive: 39.8 µM [inhibitor, partial curve, poor fit]"
COc1ccc(-c2cc(C#N)nc(N3CCN(c4ccccc4)CC3)n2)cc1,–,"inconclusive: 17.8 µM [inhibitor, single point]"
Cc1cc(C=C2C(=O)c3ccccc3C2=O)c(C)n1C,–,active: 39.8 µM
CCc1nc(Nc2ccccc2OC)c2oc3ccccc3c2n1,–,active: 50.1 µM
CCn1c(N2CCN(S(=O)(=O)c3ccccc3C(F)(F)F)CC2)nc2ccccc21,–,active: 50.1 µM
COc1ccc(/C=C/C(=O)O)cc1S(=O)(=O)NCc1ccco1,–,"inconclusive: 79.4 µM [inhibitor, single point]"
CCCCC(=O)Nc1nc(C)c(-c2csc(Nc3cc(OC)ccc3OC)n2)s1,–,"inconclusive: 20 µM [inhibitor, partial curve, poor fit]"
CC1CCN(CC(=O)n2c3c(c4ccccc42)CCCC3)CC1,–,"inconclusive: 50.1 µM [inhibitor, partial curve, poor fit]"
COc1ccc(N2C(=O)C3CCCN3C2c2cc(OC)c(OC)c(OC)c2)cc1 (centres undefined),–,"inconclusive: 89.1 µM [inhibitor, partial curve, poor fit]"
O=C(CCl)N1c2ccccc2CCc2ccccc21,–,"inconclusive: 79.4 µM [inhibitor, single point]"
O=C(O)COn1c(-c2ccccc2)nc2ccc([N+](=O)[O-])cc21,–,active: 44.7 µM
COc1ccc(-c2onc(C)c2C)cc1S(=O)(=O)N1CCc2ccccc21,inactive: -27%,–
CCc1ccc(CN(C(=O)c2ccc(OC)cc2)C2CCS(=O)(=O)C2)cc1 (centres undefined),inactive: 8.24%,–
C1CN(c2nc3nonc3n3nnnc23)CCO1,–,"inconclusive: 79.4 µM [inhibitor, partial curve, poor fit]"
Cc1cc(Nc2ccccc2F)n2nc(C)nc2n1,–,"inconclusive: 79.4 µM [inhibitor, single point]"
CCNc1ccc(C(=O)Nc2ccc3nc(C)sc3c2)cc1[N+](=O)[O-],–,"inconclusive: 22.4 µM [inhibitor, single point]"
COC(=O)CN1C(=O)C(O)(CC(=O)c2ccccc2)c2ccccc21 (centres undefined),inactive: -21.1% [at 12.7 µM],–
O=C(NC1CCCCCC1)c1c2c(nc3ccccc13)CCN(Cc1ccccc1)C2,–,active: 1.41 µM
O=C(Oc1ccc(N(C(=O)c2ccncc2)S(=O)(=O)c2ccc(F)cc2)cc1)c1ccncc1,–,active: 44.7 µM
COc1cc2c(cc1NC(=O)COc1ccc(Br)c(C)c1)oc1ccccc12,–,"inconclusive: 39.8 µM [inhibitor, single point]"
Cc1cc(C)n(-c2nnc(C)n2NS(C)(=O)=O)n1,–,"inconclusive: 56.2 µM [inhibitor, partial curve, poor fit]"

SMILES,"activity, negative = inhibition",Potency
O=C(N/N=C/c1ccc2c(c1)OCO2)/C(=C/c1ccc2c(c1)OCO2)NC(=O)c1ccccc1,inactive: 37.9% [at 12.7 µM],–
COc1ccc(N2C(=O)[C@@H]3[C@H](C2=O)[C@H](C(C)=O)N2c4ccccc4C=C[C@@H]32)cc1,–,active: 8.91 µM
CC(=O)Nc1ccc(Nc2nc3c(S(=O)(=O)c4ccc(C)c(C)c4)nnn3c3ccccc23)cc1,–,"inconclusive: 44.7 µM [inhibitor, partial curve]"
CCN(CC)S(=O)(=O)c1ccc(Cl)c(NC(=O)COC(=O)/C=C/c2cc(OC)c(OC)c(OC)c2)c1,–,"inconclusive: 1.58 µM [inhibitor, full curve]"
CCc1ccc(-n2c(SCc3nc(-c4cc(OC)ccc4OC)no3)nnc2-c2ccccc2)cc1,–,"inconclusive: 11.2 µM [inhibitor, partial curve, poor fit]"
COc1ccc(C2=CC(c3ccccc3Cl)n3nc(-c4ccc(C)cc4)nc3N2)cc1 (centres undefined),–,"inconclusive: 10 µM [inhibitor, partial curve, poor fit]"
CCOC(=O)c1c(NC(=O)CCCOc2ccc(C)cc2)sc2c1CCC(C)C2 (centres undefined),inactive: 17.8%,–
COc1cnc(-c2ccccn2)nc1Oc1ccc(F)cc1F,inactive: 4.9% [at 102 µM],–
CCc1ccc(CNC(=O)c2ccc(CS(=O)c3ccc(Br)cc3)o2)cc1 (centres undefined),inactive: -1.56%,–
CCOC(=O)Cn1c(=O)n(-c2ccccc2OC)c2nc(-c3ccccc3)nc(C(N)=O)c21,inactive: 2.18%,–
COc1ccc(NC2=C(NC(C)=O)C(=O)c3ccccc3C2=O)cc1,–,"inconclusive: 79.4 µM [inhibitor, single point]"
CC(C)C(=O)N(c1cc2sc(=O)oc2c2ccccc12)S(=O)(=O)c1cccs1,–,active: 1.78 µM
Cn1cc(S(=O)(=O)N2CCN(C(=O)c3ccco3)CC2)c(=O)n(C)c1=O,–,"inconclusive: 70.8 µM [inhibitor, single point]"
Cn1c(=O)n(C)c2cc(NS(=O)(=O)c3ccc(C(C)(C)C)cc3)ccc21,–,"inconclusive: 79.4 µM [inhibitor, single point]"
OCCN1CCN(CC(O)COc2ccc(C34CC5CC(CC(C5)C3)C4)cc2)CC1 (centres undefined),–,"inconclusive: 63.1 µM [inhibitor, partial curve, poor fit]"
Cc1ccc(C(=O)N/C(=C/c2ccco2)C(=O)Nc2cccc(C)c2)cc1,inconclusive: -114% [inhibitor],–
Cc1nc(SCc2cc(=O)c3cccc(F)c3[nH]2)n[nH]1,inactive: -1.83%,–
CCCCN(C(=O)/C=C/c1ccccc1)C1CCS(=O)(=O)C1 (centres undefined),inactive: -0.13% [at 102 µM],–
Cn1ccnc1SCC(=O)N1CCc2ccccc21,–,"inconclusive: 50.1 µM [inhibitor, partial curve, poor fit]"
CCNC(=S)N(CCc1cccc(C)c1)Cc1cc2cc(OC)c(OC)cc2[nH]c1=O,–,"inconclusive: 0.126 µM [inhibitor, full curve, poor fit]"
CCOc1ccccc1N1CCN(CC(=O)Nc2ccccc2C(=O)NC2CC2)CC1,inactive: -9.07% [at 2.33 µM],–
Cc1ccc(S(=O)(=O)NCC(=O)N(CC(=O)NC2CCCC2)CC2CCCO2)cc1 (centres undefined),–,"inconclusive: 100 µM [inhibitor, single point]"
Cc1nnc(Nc2ccccc2)n(N)c1=O,inactive: 11.1%,–

SMILES,"activity, negative = inhibition",Potency
COc1ccccc1OC(=O)CN1C(=O)c2ccccc2C1=O,–,"inconclusive: 35.5 µM [inhibitor, partial curve, poor fit]"
CCOCCc1nn2c(=O)cc(COC(=O)COc3ccc(C)c(C)c3)nc2s1,inactive: 1.73%,–
Cc1nc(SCC(=O)N2CC(=O)Nc3ccccc32)nc(C)c1C,–,active: 31.6 µM
COc1ccc(-c2nc(O)c3cnccn23)cc1,–,"inconclusive: 7.94 µM [inhibitor, full curve, poor fit]"
CSc1nc(NC(C)(C)C)nc(N2CCOCC2)n1,–,"inconclusive: 20 µM [inhibitor, single point]"
Cc1ccc(NC(=O)c2ccc(-n3cncn3)c([N+](=O)[O-])c2)cc1F,–,"inconclusive: 89.1 µM [inhibitor, single point]"
CC1CN(CCOc2ccccc2-c2ccccc2)CC(C)O1 (centres undefined),–,active: 14.1 µM
CC(C)=NNc1nc2c(c(=O)[nH]c(=O)n2C)n1CCCc1ccccc1,inactive: -3.06% [at 2.33 µM],–
CCN(C(=O)CSc1nc2ccccc2n1CCc1ccccc1)C1CCS(=O)(=O)C1 (centres undefined),–,"inconclusive: 2.24 µM [inhibitor, partial curve, poor fit]"
COC(=O)c1ccc(NC2c3ncccc3C(=O)N2Cc2cccs2)cc1 (centres undefined),–,"inconclusive: 31.6 µM [inhibitor, full curve]"
CC(C)c1ccc(NC(=O)CSc2ncnc3c2sc2ccccc23)cc1,inactive: 6.58%,–
O=C(CN(Cc1ccc(F)cc1)C(=O)CNS(=O)(=O)c1ccccc1)NCC1CCCO1 (centres undefined),–,"inconclusive: 28.2 µM [inhibitor, single point]"
CCOc1ccc(CCNC(=O)CSc2nc3ccccc3nc2Cc2ccc(C)cc2)cc1OCC,–,"inconclusive: 8.91 µM [inhibitor, partial curve, poor fit]"
COC(=O)c1c(C)[nH]c(C)c1-c1ccc([N+](=O)[O-])cc1,–,"inconclusive: 89.1 µM [inhibitor, single point]"
CC(C)CCOc1ccc(Cn2c(=O)sc3ccccc32)cc1,inactive: 78.3%,–
CCOC(=O)Cc1csc(NC(=O)COc2ccc(N(C)S(=O)(=O)c3ccc(C)cc3)cc2)n1,inactive: 12.9% [at 102 µM],–
CCSc1nc(N)c(C#N)c(-c2ccco2)c1C#N,inactive: -12.9%,–
O=C(O)C1Sc2[nH]c(=O)sc2C2c3ccc(O)cc3OC(=O)C12 (centres undefined),–,active: 39.8 µM
CCOc1ccc(OCCSc2nc3ccccc3c(=O)[nH]2)cc1,–,"inconclusive: 31.6 µM [inhibitor, single point]"
O=C(Nc1cccc2ccccc12)N1CCOCC1,–,"inconclusive: 2.51 µM [inhibitor, partial curve, poor fit]"
CCc1cccc(Nc2cc(C)nc3nc(C)nn23)c1,–,"inconclusive: 39.8 µM [inhibitor, single point]"
Cc1cc(Cl)c(OCCCCN2CCOCC2)c(Br)c1,–,"inconclusive: 2.24 µM [inhibitor, partial curve, poor fit]"
CCOc1ccccc1NC(=O)Nc1ccc2nc(N3CCN(C)CC3)cc(C)c2c1,–,"inconclusive: 14.1 µM [inhibitor, partial curve, poor fit]"
